The other results are listed elsewhere or left out.
Legend:
Experiment in all cases: glycan array binding signal (z-score within array); higher = stronger binding
Details in all cases: glycan notation: IUPAC condensed, linker removed
[1] = molecular target: Fuc(a1-2)Gal
Procedure, shortened: (§1)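 Arrays were curated from the Consortium for Functional Glycomics database, 3228 in total, and kept only where the protein sequence was available. Binding is expressed as a within-array Z-score. This score was averaged across arrays of the same protein sequence at different concentrations or buffers and across linkers, and negative values can be read as non-binding.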

[2] = molecular target: Fuc(a1-2)Gal(b1-3)GalNAc
Procedure, shortened: as §1

[3] = molecular target: Fuc(a1-2)Gal(b1-3)GalNAc(a1-3)[Fuc(a1-2)]Gal(b1-4)Glc
Procedure, shortened: as §1

[4] = molecular target: Fuc(a1-2)Gal(b1-3)GalNAc(a1-3)[Fuc(a1-2)]Gal(b1-4)GlcNAc
Procedure, shortened: as §1

[5] = molecular target: Fuc(a1-2)Gal(b1-3)GalNAc(b1-3)Gal
Procedure, shortened: as §1

[6] = molecular target: Fuc(a1-2)Gal(b1-3)GalNAc(b1-3)Gal(a1-4)Gal(b1-4)Glc
Procedure, shortened: as §1

[7] = molecular target: Fuc(a1-2)Gal(b1-3)GalNAc(b1-4)[Neu5Ac(a2-3)]Gal(b1-4)Glc
Procedure, shortened: as §1

[8] = molecular target: Fuc(a1-2)Gal(b1-3)GlcNAc
Procedure, shortened: as §1

[9] = molecular target: Fuc(a1-2)Gal(b1-3)GlcNAc(b1-2)Man(a1-3)[Fuc(a1-2)Gal(b1-3)GlcNAc(b1-2)Man(a1-6)]Man(b1-4)GlcNAc(b1-4)GlcNAc
Procedure, shortened: as §1

[10] = molecular target: Fuc(a1-2)Gal(b1-3)GlcNAc(b1-2)Man(a1-3)[Fuc(a1-2)Gal(b1-3)GlcNAc(b1-2)Man(a1-6)]Man(b1-4)GlcNAc(b1-4)[Fuc(a1-6)]GlcNAc
Procedure, shortened: as §1

[11] = molecular target: Fuc(a1-2)Gal(b1-3)GlcNAc(b1-3)Gal(b1-4)Glc
Procedure, shortened: as §1

[12] = molecular target: Fuc(a1-2)Gal(b1-3)GlcNAc(b1-3)GalNAc
Procedure, shortened: as §1

[13] = molecular target: Fuc(a1-2)Gal(b1-3)GlcNAc(b1-3)[Fuc(a1-2)Gal(b1-3)GlcNAc(b1-6)]GalNAc
Procedure, shortened: as §1

[14] = molecular target: Fuc(a1-2)Gal(b1-3)GlcNAc(b1-3)[Gal(b1-4)GlcNAc(b1-6)]Gal(b1-4)Glc
Procedure, shortened: as §1

[15] = molecular target: Fuc(a1-2)Gal(b1-3)GlcNAc(b1-3)[Neu5Ac(a2-6)Gal(b1-4)GlcNAc(b1-6)]Gal(b1-4)Glc
Procedure, shortened: as §1

[16] = molecular target: Fuc(a1-2)Gal(b1-3)GlcNAc6S
Procedure, shortened: as §1

[17] = molecular target: Fuc(a1-2)Gal(b1-3)[Fuc(a1-4)]GlcNAc
Procedure, shortened: as §1

[18] = molecular target: Fuc(a1-2)Gal(b1-3)[Fuc(a1-4)]GlcNAc(b1-2)Man(a1-3)[Fuc(a1-2)Gal(b1-3)[Fuc(a1-4)]GlcNAc(b1-2)Man(a1-3)]Man(b1-4)GlcNAc(b1-4)GlcNAc
Procedure, shortened: as §1

[19] = molecular target: Fuc(a1-2)Gal(b1-3)[Fuc(a1-4)]GlcNAc(b1-2)Man(a1-3)[Fuc(a1-2)Gal(b1-3)[Fuc(a1-4)]GlcNAc(b1-2)Man(a1-6)]Man(b1-4)GlcNAc(b1-4)[Fuc(a1-6)]GlcNAc(b1-4)[Fuc(a1-6)]GlcNAc
Procedure, shortened: as §1

[20] = molecular target: Fuc(a1-2)Gal(b1-3)[Fuc(a1-4)]GlcNAc(b1-3)[Fuc(a1-3)[Gal(b1-4)]GlcNAc(b1-6)]Gal(b1-4)Glc
Procedure, shortened: as §1

[21] = molecular target: Fuc(a1-2)Gal(b1-3)[Fuc(a1-4)]GlcNAc(b1-3)[Gal(b1-4)GlcNAc(b1-6)]Gal(b1-4)Glc
Procedure, shortened: as §1

[22] = molecular target: Fuc(a1-2)Gal(b1-4)Glc
Procedure, shortened: as §1

[23] = molecular target: Fuc(a1-2)Gal(b1-4)Glc6S
Procedure, shortened: as §1

[24] = molecular target: Fuc(a1-2)Gal(b1-4)GlcNAc
Procedure, shortened: as §1

[25] = molecular target: Fuc(a1-2)Gal(b1-4)GlcNAc(b1-2)Man
Procedure, shortened: as §1

[26] = molecular target: Fuc(a1-2)Gal(b1-4)GlcNAc(b1-2)Man(a1-3)[Fuc(a1-2)Gal(b1-4)GlcNAc(b1-2)Man(a1-6)]Man(b1-4)GlcNAc(b1-4)GlcNAc
Procedure, shortened: as §1

[27] = molecular target: Fuc(a1-2)Gal(b1-4)GlcNAc(b1-2)Man(a1-3)[Fuc(a1-2)Gal(b1-4)GlcNAc(b1-2)Man(a1-6)]Man(b1-4)GlcNAc(b1-4)[Fuc(a1-6)]GlcNAc
Procedure, shortened: as §1

[28] = molecular target: Fuc(a1-2)Gal(b1-4)GlcNAc(b1-2)[Fuc(a1-2)Gal(b1-4)GlcNAc(b1-4)]Man(a1-3)[Fuc(a1-2)Gal(b1-4)GlcNAc(b1-2)Man(a1-6)]Man(b1-4)GlcNAc(b1-4)GlcNAc
Procedure, shortened: as §1

[29] = molecular target: Fuc(a1-2)Gal(b1-4)GlcNAc(b1-3)Gal(b1-4)GlcNAc
Procedure, shortened: as §1

[30] = molecular target: Fuc(a1-2)Gal(b1-4)GlcNAc(b1-3)Gal(b1-4)GlcNAc(b1-2)Man(a1-3)[Fuc(a1-2)Gal(b1-4)GlcNAc(b1-3)Gal(b1-4)GlcNAc(b1-2)Man(a1-6)]Man(b1-4)GlcNAc(b1-4)GlcNAc
Procedure, shortened: as §1

B1: Pbx1 (Cryptococcus neoformans) (protein)
chain: ATTKCLVSGDQDSINNALALGGEGTTVTLCPGSVHRLNSSIIFTAPSQTLTTLGNPKDRNRAMLVVDGEDLACAIRADCKQCSHAMIRSLVIDGNRPQLLRIPKGDALIEVGNAESQTVRDCKLYEPRGWSALHFREGDERQCRFGHIVDNEIGPCGEEWDDEYDSMDETKPLWGNPRADGISLACKDSIVERNVVYDATDGAIVLFGSAGSTVKNNHVYARTRVILGGINLVDYEPWDGDYTNVKVHHNHLYALGRYFKVGIVIGPASWSDDTESVVHSASVTDNEFSGGYWGYGIVVASAKNFEVLRNKVIWDGEQGVARFSGVPGSRCPKAPENGKPTAFLINRGSAKGIFQDDFVNGEVQHIICLNPDQDPPYKPWRFRDSPEAIAAKQAENPTANSAFDSRIAEALVSYQMSLLNSMDAMTQKVEHLTNPIVDDALPFVHEHERAEADKKARQEASRKEKESGNKDVDMLNVKVEELEKSGRRLKKALDGLKSDFEGLSGRLKKSADENKPIIETIFVTSQNLLLGATSQQN
glycan array binding signal (z-score) [1]: -0.619
glycan array binding signal (z-score) [2]: -0.331
glycan array binding signal (z-score) [3]: 0.561
glycan array binding signal (z-score) [4]: 0.2
glycan array binding signal (z-score) [5]: -0.1
glycan array binding signal (z-score) [6]: -0.792
glycan array binding signal (z-score) [7]: -0.657
glycan array binding signal (z-score) [8]: -0.46
glycan array binding signal (z-score) [9]: 0.459
glycan array binding signal (z-score) [10]: 0.209
glycan array binding signal (z-score) [11]: -0.04
glycan array binding signal (z-score) [12]: 0.44
glycan array binding signal (z-score) [13]: 0.579
glycan array binding signal (z-score) [14]: -0.938
glycan array binding signal (z-score) [15]: -0.045
glycan array binding signal (z-score) [16]: 1.1
glycan array binding signal (z-score) [17]: -0.161
glycan array binding signal (z-score) [18]: 2.82
glycan array binding signal (z-score) [19]: 0.05
glycan array binding signal (z-score) [20]: -0.395
glycan array binding signal (z-score) [21]: 0.086
glycan array binding signal (z-score) [22]: -0.305
glycan array binding signal (z-score) [23]: -0.641
glycan array binding signal (z-score) [24]: -0.749
glycan array binding signal (z-score) [25]: -0.654
glycan array binding signal (z-score) [26]: -0.038
glycan array binding signal (z-score) [27]: -0.297
glycan array binding signal (z-score) [28]: 0.821
glycan array binding signal (z-score) [29]: -0.188
glycan array binding signal (z-score) [30]: 0.745
